From article PMC4336329 (PLoS ONE, 2015)
Hit rate of the full screen: of about 310,000 compounds, about 14,000 (4.5%) showed an effect of 50% or more. The effect is printed as a negative number. Some of the results follow.

Target: human ether-à-go-go-related gene (hERG) potassium channel (human, UniProt Q12809)
Test: primary screen, population patch clamp on CHO cells stably expressing hERG
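Note: peak tail current of the secondary pulse compared with the same well before compound.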

Chain of human ether-à-go-go-related gene (hERG) potassium channel (Q12809 whole entry, looked up): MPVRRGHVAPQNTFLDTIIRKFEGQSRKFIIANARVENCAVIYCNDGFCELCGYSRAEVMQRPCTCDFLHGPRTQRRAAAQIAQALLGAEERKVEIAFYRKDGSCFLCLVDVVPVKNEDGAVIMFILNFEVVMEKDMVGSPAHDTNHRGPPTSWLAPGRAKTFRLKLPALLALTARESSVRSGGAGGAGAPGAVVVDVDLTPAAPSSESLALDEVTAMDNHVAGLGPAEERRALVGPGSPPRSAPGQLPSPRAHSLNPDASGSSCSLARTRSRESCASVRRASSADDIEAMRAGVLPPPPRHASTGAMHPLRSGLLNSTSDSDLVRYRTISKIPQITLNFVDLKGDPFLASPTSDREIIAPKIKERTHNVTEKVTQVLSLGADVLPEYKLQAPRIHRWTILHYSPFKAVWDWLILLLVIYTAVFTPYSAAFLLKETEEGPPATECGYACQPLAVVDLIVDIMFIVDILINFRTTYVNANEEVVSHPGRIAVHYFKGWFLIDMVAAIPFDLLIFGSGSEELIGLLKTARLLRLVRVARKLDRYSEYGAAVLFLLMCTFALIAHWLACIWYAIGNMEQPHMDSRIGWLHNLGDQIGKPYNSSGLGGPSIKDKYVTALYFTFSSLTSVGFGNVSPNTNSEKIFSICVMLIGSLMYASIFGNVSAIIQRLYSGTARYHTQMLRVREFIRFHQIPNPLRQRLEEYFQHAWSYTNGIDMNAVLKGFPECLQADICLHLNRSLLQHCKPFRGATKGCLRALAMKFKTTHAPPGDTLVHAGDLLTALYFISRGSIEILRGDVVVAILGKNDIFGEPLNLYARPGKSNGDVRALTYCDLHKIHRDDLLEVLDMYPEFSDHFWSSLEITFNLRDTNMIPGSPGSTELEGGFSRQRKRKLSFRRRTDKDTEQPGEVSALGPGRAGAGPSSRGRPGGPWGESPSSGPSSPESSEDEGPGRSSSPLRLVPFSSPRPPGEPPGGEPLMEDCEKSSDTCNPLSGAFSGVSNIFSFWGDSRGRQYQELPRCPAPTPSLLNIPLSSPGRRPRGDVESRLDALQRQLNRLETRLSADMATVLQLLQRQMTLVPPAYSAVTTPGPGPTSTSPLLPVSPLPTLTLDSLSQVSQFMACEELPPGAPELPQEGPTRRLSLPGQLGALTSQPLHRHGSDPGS

Structure (SMILES)	hERG current change (%, negative = inhibition) at 10uM
CCOc1ccc(S(=O)(=O)N(C)c2ccc(OCC(=O)N3c4ccc(C)cc4C4CN(C)CCC43)cc2)cc1 (centres unmarked)	-38.5%
O=C1c2ccccc2NC(c2cccs2)N1NS(=O)(=O)c1ccccc1 (centres unmarked)	2.27%
O=C(O)c1ccc(COc2ccc3ccccc3c2)o1	3.19%
COc1ccc(NC(=O)NCc2ccc3c(c2)OCO3)cc1	7.72%
CCOc1ncccc1C(=O)Nc1ccc2c(C)cc(=O)oc2c1	18.8%
O=S(=O)(NCCSc1nc2ccccc2o1)c1ccccc1	-5.31%
c1ccc(C(Cc2nc(-c3ccccn3)no2)c2ccccc2)cc1	-2.55%
O=C(NNc1ncnc2c1cnn2-c1ccccc1)c1ccco1	-2.78%
Cc1cc2[nH]c(=O)c(=O)[nH]c2cc1S(=O)(=O)N1CCC(C)CC1	7.98%
Cc1cnc(CN2CCc3c([nH]c4ccccc34)C2C2CCCCC2)[nH]1 (centres unmarked)	-62.6%
Cc1c(CC(=O)O)c(=O)oc2c(C)c(OCc3c(F)cccc3Cl)ccc12	5.53%
CCOC(=O)C(Cc1ccccc1)(Cc1ccccc1)C(C)=O	2.28%
CCn1c(COc2cccc3cccnc23)nnc1SC(F)F	5.28%
CC(=O)Nc1ccc(-n2cc(-c3ccccc3)[nH]c2=S)cc1	17.6%
CCN1C(=O)c2cccc3c(S(=O)(=O)NC(Cc4c[nH]c5ccccc45)C(=O)O)ccc1c23 (centres unmarked)	10.7%
Cn1c(CNC(=O)CNC(=O)Cc2ccccc2)cc(=O)n(C)c1=O	18.3%
COc1ccc(NC(=S)NNC(=O)C(C)n2nc(C)c([N+](=O)[O-])c2C)cc1 (centres unmarked)	15.4%
CN1CCCN(C(=O)COc2ccc(Br)cc2)CC1	-17.3%
Cc1ccc(C(=O)CN(C(=O)c2ccc(Cl)cc2)N2C(=O)CCC2=O)cc1	-50.7%
O=C(CCCCCn1c(=O)[nH]c2ccsc2c1=O)NCc1cccs1	13.8%
Cc1noc(NS(=O)(=O)c2ccc(NC(=O)c3cnc4n(c3=O)CCS4)cc2)c1C	4.59%
COc1cc2c(cc1OC)CN(C(=O)CSc1nc(N)c(C#N)cc1C#N)CC2	-12.3%

Structure (SMILES)	hERG current change (%, negative = inhibition) at 10uM
COc1ccc(N2CCN(C(=O)c3ccc(F)cc3)CC2)c([N+](=O)[O-])c1	-70.1%
Cc1cccc(OCC(=O)Nc2ccc3c(c2)nc(CCN2CCC(C)CC2)n3C)c1	-68.7%
COc1ccc(C(=O)C(Cc2ccccc2)N(C)C)cc1 (centres unmarked)	-24.1%
CCN1C/C(=C/c2cccc([N+](=O)[O-])c2)C(=O)/C(=C/c2cccc([N+](=O)[O-])c2)C1	-37.3%
Cc1nc(SCC(=O)Nc2cc(C)on2)c2c(C)c(C)sc2n1	8.58%
CC(Oc1cccnc1[N+](=O)[O-])C(=O)Nc1cccc(Cl)c1 (centres unmarked)	-9.19%
CC1Sc2ccc(C(=O)NCc3ccccn3)cc2NC1=O (centres unmarked)	8.19%
COc1cccc(/C=N/c2nc3ccccc3[nH]2)c1O	3.14%
O=C(COc1coc(CN2CCN(c3ccccc3F)CC2)cc1=O)NC1CCCC1	-9.99%
NS(=O)(=O)c1ccc(NC(=O)/C(=C/c2ccncc2)NC(=O)c2ccccc2)cc1	21.9%
COC(=O)CCCC(=O)NC(C)c1cnn(-c2ccccc2C)c1C (centres unmarked)	-4.28%
CC(=O)c1ccc(OC(C)C(=O)NC2CCCCC2C)cc1 (centres unmarked)	2.43%
C=CCCC(=O)NC1CC(C)(C)Cc2c1cnn2-c1ccc(OC)cc1 (centres unmarked)	-46%
CC(C)(C)c1nc2scc(-c3ccc(Cl)cc3)c2c(=O)o1	4.57%
O=C(Cn1cnnn1)Nc1cccc(S(=O)(=O)N2CCCCC2)c1	18.2%
O=c1oc2ccccc2cc1-c1csc(Cc2nc(-c3ccc(Cl)cc3)cs2)n1	19.4%
Cc1cnc(NC(=O)CSc2nnc(-c3ccccc3)o2)s1	-0.589%
CC(C)CN(C(=O)CN1CCOCC1)c1c(N)n(CC(C)C)c(=O)[nH]c1=O	13.7%
COc1cccc(C2CC(c3ccc(C)cc3)Nc3nc(N)nn32)c1 (centres unmarked)	1.95%
Cc1nc2ccccc2c2c1C(=O)N(Cc1cccnc1)C2=O	-17.5%
COc1cccc(/C=N/NC(=O)c2ccccc2)c1OS(=O)(=O)c1ccccc1	6.22%
Cc1ccc(S(=O)(=O)N2[C@@H](c3ccc(F)cc3)C(C(=O)O)=CC[C@H]2c2cccc(Cl)c2)cc1	0.604%

Structure (SMILES)	hERG current change (%, negative = inhibition) at 10uM
COc1ccc(C(=O)NNC(=O)C23CC4CC(CC(C4)C2)C3)cc1OC	0.327%
CCc1nc2cc(CC(=O)O)ccc2o1	8.35%
CCOC(=O)c1ccc(N2C(=O)C3C(/C=C/c4ccccc4)OC4(C(=O)c5ccccc5C4=O)C3C2=O)cc1 (centres unmarked)	23.8%
Cc1cc2n(c(=O)c1C#N)CCCN2c1cccc(Cl)c1	-65%
O=C(NC1CC1)C1CCCN1S(=O)(=O)c1ccc2ccccc2c1 (centres unmarked)	0.266%
COc1cc2c(cc1NC(=O)COC(=O)/C=C/c1ccc([N+](=O)[O-])cc1)oc1ccccc12	-3.51%
COc1cc(CN2CCCCCC2)cc(OC)c1OC.O=C(O)C(=O)O	13.8%
CCN(CC)c1ccc(/C=N/NC(=O)c2ccc3nc[nH]c3c2)c(O)c1	21.4%
S=c1nc2c(n[nH]1)c1ccccc1n2CCc1ccccc1	17.9%
CCOc1ccc(-n2ccnc2SCC(=O)NCc2ccc3c(c2)OCO3)cc1	-31.6%
O=C(OCn1ncc(Br)c(Br)c1=O)c1ccc(F)cc1	-51.4%
CCN(CC)C(=O)CSc1nc(-c2cccs2)cc(-c2cccs2)c1C#N	-10.7%
Cn1c(-c2sc3cc(C(F)(F)F)cnc3c2-c2ccccn2)n[nH]c1=S	19.2%
CCC/C=N/Nc1nnc(Cc2ccccc2)c(=O)[nH]1	-11.5%
COc1ccc(S(=O)(=O)Nc2cccc3ccc(O)cc23)cc1	-1.13%
COc1cc(/C=C2\SC(=S)N(CCC(=O)N3CCN(C)CC3)C2=O)cc(OC)c1OC	-35.2%
COc1ccc(NC(=O)CN2CCN(c3ccccn3)CC2)cc1Cl	-17.4%
C/C(=N\NS(=O)(=O)c1ccc(C)cc1)c1ccc(C)o1	4.63%
C/C(CC(=O)Nc1ccc(Cl)cc1C(F)(F)F)=N\NC(=O)c1ccccn1	0.77%
CC1(C)CC(=O)C(N=Nc2cccc(F)c2C#N)=C(O)C1	13.2%
COc1ccc(-n2ncc3c(=O)n(CC(=O)NC(C)C)cnc32)cc1	1.54%
CCOC(=O)Cn1nnc(-c2cccc(OC)c2)n1	2.68%

Structure (SMILES)	hERG current change (%, negative = inhibition) at 10uM
O=C(CSc1nnc(Cc2ccccc2)o1)N1CCCC1	2.53%
COc1ccc(-c2nc3ncccn3c2Nc2ccccc2)cc1	-9.03%
COc1cc(C(=S)N2CCCCC2)ccc1OCC(=O)Nc1ccccc1Cl	18.9%
O=C(Cc1ccccc1)NC(=S)Nc1ccc(OC(F)F)cc1	-2.31%
CCN(CC)S(=O)(=O)c1ccc(C(=O)NCCCn2ccnc2)cc1	18.2%
COc1ccccc1-n1c(C)c(C(=O)O)c2cc(OC)c3ccccc3c21	12.2%
O=C(CN1CCOc2ccccc21)NCc1cccs1	8.26%
O=C(NCc1ccccn1)c1ccc(NS(=O)(=O)c2cccc([N+](=O)[O-])c2)cc1	11.3%
CCCc1nc2c(sc3nc4c(cc32)COC(C)(C)C4)c(=O)o1	69%
CCOC(=O)C(NC(C)=O)C(=O)Nc1ccc(C)cc1C (centres unmarked)	15.7%
O=C(COC(=O)c1ccccc1NS(=O)(=O)c1cccs1)NC1CCCCC1	-12.9%
COc1ccc(CCNC(=O)Cc2ccc(NC3=NC4CS(=O)(=O)CC4S3)cc2)c(OC)c1 (centres unmarked)	14.9%
O=C(COC(=O)CNC(=O)c1ccccc1F)Nc1cccc(S(=O)(=O)N2CCCCCC2)c1	-30.4%
COc1cccc(NC(=O)CSc2nc3ccccc3c(=O)n2CCCC(=O)NCC2CCCO2)c1 (centres unmarked)	-70.3%
Cc1nn(C)c(C(=O)Nc2cccc(Nc3ccccc3)c2)c1[N+](=O)[O-]	1.05%
O=C(Nc1cccc(NC(=O)c2cccc(Cl)c2)c1)c1cccnc1	-16.3%
CCCC(=O)Nc1cc(C(=O)N(C)CC(OC)OC)ccc1S(=O)(=O)c1ccc(C)cc1	4.73%
CCCOC(=O)c1ccc(S(N)(=O)=O)o1	13.5%
Cc1ccc(N2C(=O)c3ccccc3C2Nc2ccccc2)nc1 (centres unmarked)	2.74%
O=C(NNc1ccc(C(F)(F)F)cc1[N+](=O)[O-])c1ccc(NS(=O)(=O)c2ccc(F)cc2)cc1	-1.05%
